About 64,000 (15%) of roughly 420,000 compounds were called active. Inconclusive means that the source gave no clear call. Such entries were picked first, then a sample of the others. Calls follow the shape of the dose curve; as a rule, active = well fitted inhibition curve with a large enough effect; inconclusive = small, poorly fitted or top-dose-only effect; inactive = flat fitted curve, though single readings scatter. No potency is given beside an inconclusive call; the fits are too rough.
Test: qHTS for Inhibitors of human tyrosyl-DNA phosphodiesterase 1 (TDP1): qHTS in cells in absence of CPT; also: nearly all actives have a fitted effect of over 55% in size
Details: DT40 Tdp1-/- hTDP1 cells, no CPT, ATP luminescence, 48 h; activity change, negative = growth inhibition: at 46.2 µM (top of the series)
Procedure, shortened: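 Growth of hTDP1-complemented DT40 Tdp1-knockout cells is measured by ATP luminescence after at least 48 hr compound exposure at 37 °C, with DMSO substituting for the 20 nM CPT used in the parallel screen.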
With `Cc1nnc(SCc2ccc(F)cc2Cl)s1` the activity change, negative = growth inhibition was inconclusive: -32.8% [inhibitor].
For `CCCCOC(=O)CCc1c(C)n[nH]c1C`, the “activity change, negative = growth inhibition” value was inactive: -8.29%.
With `COC(=O)c1c(C)cc(C)c2c1CC(C)(C)C2=O` the “activity change, negative = growth inhibition” value was inactive: -1.46%.
In the case of `COCCN1C=C2C(=O)C(C)(OC(=O)CCC(=O)OC)C(=O)C(Br)=C2C=C1c1ccc(OC)cc1` (stereo unspecified), the “activity change, negative = growth inhibition” value is reported as inactive: -20.6%.
With `COc1cccc(CNS(=O)(=O)c2ccc3c(c2)C(C(C)C)C(=O)N3)c1` (stereo unspecified) the Potency was active: 13 µM.
In the case of `Cc1ccc(NC(=O)CCSc2nnc(Cc3ccccc3)o2)cc1`, the “activity change, negative = growth inhibition” value is reported as inactive: -5.82%.
In the case of `COc1ccccc1N1CCN(C2CCCN(Cc3ccc(Cl)cc3)C2)CC1` (stereo unspecified), the Potency is reported as inconclusive [inhibitor, single point].
In the case of `Cc1ccc2cccc(NC(=O)C(C)Oc3ccc(Cl)cc3Cl)c2n1` (stereo unspecified), the Potency is reported as inconclusive [inhibitor, single point].
In the case of `COc1ccc(-c2nc3cnc(N4CCN(C)CC4)nc3n(Cc3cccc(OC)c3)c2=O)cc1`, the Potency is reported as inconclusive [inhibitor, single point].
For `O=C(Nc1cccc(-c2nc3ccccc3o2)c1)C(F)(F)F`, the Potency was active: 2.91 µM.
For `O=C(COC(=O)c1ccccc1NC(=O)c1ccco1)NCc1ccc2c(c1)OCO2`, the activity change, negative = growth inhibition was inconclusive: -32.3% [inhibitor].
In the case of `COc1ccc(-c2sc3ccccc3c2-c2ccc(OC)cc2F)cc1`, the Potency is reported as inconclusive [inhibitor, single point].
With `Cc1cc(C(=O)N/N=C/c2ccc(-c3ccccc3Cl)o2)n[nH]1` the Potency was inconclusive [inhibitor, partial curve, poor fit].
In the case of `COc1ccccc1C(=O)Nc1c2c(nn1-c1cccc(C)c1C)CS(=O)C2` (stereo unspecified), the Potency is reported as inconclusive [inhibitor, partial curve].
For `CC(C)CNC(=O)[C@H]1N2C(=O)c3ccccc3C2SC1(C)C` (stereo partly specified), the “activity change, negative = growth inhibition” value was inactive: 11.5%.
With `CC(C)NC(=O)c1ccc(Sc2ccccc2)c([N+](=O)[O-])c1` the “activity change, negative = growth inhibition” value was inactive: -5.56%.
In the case of `COc1ccc(CNC(=O)Nc2cn(CC(C)C)c(=O)c3ccccc23)cc1`, the Potency is reported as inconclusive [inhibitor, single point].
In the case of `COCCN(CCOC)S(=O)(=O)c1ccc(C(=O)Nc2nc3c(s2)CCc2ccccc2-3)cc1`, the Potency is reported as active: 13 µM.
With `Cc1cc(Cl)ccc1OCC(=O)N1CCC(c2nc3ccccc3s2)CC1` the Potency was inconclusive [inhibitor, single point].
For `O=C(Cn1nnc2ccccc21)OCC(=O)c1ccc(F)cc1`, the “activity change, negative = growth inhibition” value was inactive: -0.884%.
For `COCCCN=Cc1c(C)[nH]n(-c2ccc(Br)c(C)c2)c1=O`, the Potency was inconclusive [inhibitor, single point].
% is scaled to controls: 0 for no effect and ±100 for the full control effect; potency is read from the fitted curve at half-maximal effect; tags tell the direction and shape of the fitted curve.
